Source: ChEMBL document CHEMBL4888484, “Replenishing the malaria drug discovery pipeline: Screening and hit evaluation of the MMV Hit Generation Library 1 (HGL1) against asexual blood stage Plasmodium falciparum ,using a nano luciferase reporter read-out” (2022)
“And” between values parts separate entries of the source, which are not always exact repeats. Equal values may be shown once. The campaign covered roughly 150,000 compounds. About 540 (0.36%) showed an effect of 50% or more. Some of the results follow.

System: Plasmodium falciparum
Assay: Primary screen in NF54 nanoGlo assay, in single point, at 2uM, 72h; a lower Z score goes with more inhibition
Assay type: functional, Erythrocyte
Settings: timepoint 72 hour

Row | SMILES | % Inhibition [%] | Z score | % Inhibition (2 µM)
1 | O=C(NCc1ccc(Cn2ccnc2)cc1)[C@@H]1CCN1Cc1ccccc1 | -2 | 0.21 | –
2 | O=C(Nc1noc2c1CCCC2)[C@H]1CCOC2(CCCC2)C1 | -1 | 0.15 | –
3 | COc1ccc(-n2c(N)c(C(=O)NCc3ccc4c(c3)OCO4)sc2=S)c(OC)c1 | -6 | 0.74 | –
4 | Cc1ccc(S(=O)(=O)c2c(C(=O)N3CCCCC3)cnc3ccc(F)cc23)cc1 | 5 | -0.86 | –
5 | Cn1cc(C(C)(C)C(=O)N2CC[C@H]2C(F)F)cn1 | -13 | 1.32 | –
6 | Cc1ccc(N2C[C@@H](C(=O)N3CCCC3)CC2=O)c(C)c1 | -7 | 1.07 | –
7 | Cn1ncc2c(=O)n(C[C@H](O)COc3ccc(F)cc3)cnc21 | -8 | 1.65 | –
8 | O=C(C1CCN([C@H]2CN(S(=O)(=O)c3ccccc3)C[C@@H]2O)CC1)N1CCCC1 | 7 | -0.86 | –
9 | CC(=O)N1CCCCC[C@H]1c1noc(-c2ccccc2)n1 | -12 | 1.77 | –
10 | C[C@H]1CS(=O)(=O)CCCN1C(=O)COC1(C)CCC1 | -5 | 0.82 | –
11 | COc1cc(CS(=O)(=O)[C@@H](C)C(=O)N2CCc3ccccc32)ccc1OC(F)F | -1 | 0.1 | –
12 | CCOc1ccccc1C1c2[nH]c3ccccc3c2C[C@H]2C(=O)N(C3CCCCCC3)CC(=O)N12 (stereo partly drawn) | 24 | -3.09 | –
13 | O=C(NC[C@H]1CCCN2CCCC[C@@H]12)C1CC(=O)N(c2n[nH]c3cccc(F)c23)C1 (stereo partly drawn) | -7 | 0.83 | –
14 | CC[C@@H](CNC(=O)N1CCCN(c2ccccc2C)CC1)N1CCOCC1 | -4 | 0.57 | –
15 | Cc1ccc([C@H](CNC(=O)c2oc3cc(C)c(Cl)cc3c2C)N2CCN(C)CC2)o1 | -6 | 0.9 | –
16 | CN(Cc1ccc(F)cc1)C(=O)Nc1ccc2[nH]ccc2c1 | -1 | 0.1 | –
17 | COc1ccc(C(=O)N(Cc2cc3ccc(C)cc3nc2N2CCN(C(C)=O)CC2)C2CC2)cc1OC | 7 | -0.95 | –
18 | CC[C@@H]1OC2(CCN(C(=O)c3cc4c(C)cc(F)cc4[nH]3)CC2)NC1=O | 6 | -1 | –
19 | Cc1nnc2ccc(-c3noc(-c4ccc5cc[nH]c5c4)n3)cn12 | -13 | 2.23 | –
20 | Cn1c(CN2CC3CCCCC32c2ccccc2)cc(=O)n(C)c1=O (stereo not drawn) | -7 | 1.31 | –
21 | COc1ccc(CCNC(=O)c2cc(C(C)(C)C)c3c(O)n[nH]c3n2)cc1 | 35 | -3.96 | –

Row | SMILES | % Inhibition [%] | Z score | % Inhibition (2 µM)
22 | CN(C[C@H]1CCCCN1C)c1ncccc1C(N)=O | 1 | -0.13 | –
23 | CS(=O)(=O)NCc1ncnn1CCc1ccccc1 | -21 | 1.9 | –
24 | CCc1cccc2c(C3CCN(C(=O)c4cccc5c4CNC5)CC3)c[nH]c12 | -10 | 1.67 | –
25 | CCCC(C)NC(=O)C(C)NC1CCN(C(C)=O)CC1CC (stereo not drawn) | -2 | 0.22 | –
26 | CS(=O)(=O)N[C@H]1C[C@@H]2C[C@H]1N(C(=O)c1cc3c(s1)CCCC3)C2 | 28 | -3.16 | –
27 | CC(NC(=O)C1CC(=O)C1)C(c1ccccc1Cl)n1cccn1 (stereo not drawn) | 19 | -2.47 | –
28 | O=C([C@H]1CCCN(Cc2ccco2)C1)N1CCc2ncccc2C1 | 9 | -1.65 | –
29 | O=C(C1=NN(c2ccccc2)C(=O)CN1)N1CCOCC1 | 5 | -1 | –
30 | CC(=O)N1CCN(C(=O)c2cnc(-c3ccc4c(c3)CCO4)s2)C(C)(C)C1 | -8 | 0.9 | –
31 | CC(C)[C@@H](CO)NC(=O)NCC1OCCc2sccc21 (stereo partly drawn) | -10 | 0.83 | –
32 | Cc1ccc(C(=O)Nc2sc3c(c2C(=O)N2CCC(C)CC2)CC[C@H](C)C3)cc1 | 3 | -0.44 | –
33 | Cc1cccc2nc(CN3CCS(=O)(=O)CC3)cn12 | -12 | 1.68 | –
34 | CC(=O)Nc1ccc(CN2C[C@@H]3CC[C@H]2CN(Cc2[nH]cnc2C)C3)cc1 | -5 | 0.48 | –
35 | COc1ccc(-c2cnc3n2C[C@@H](C(=O)NCCNC(C)=O)CC3)cc1 | -3 | 0.49 | –
36 | N#CCCS(=O)(=O)c1ccc(Cl)c(Cl)c1 | -16 | 3.02 | –
37 | CC(C)N1CCc2nc(-c3ccccc3)[nH]c(=O)c2C1 | 6 | -0.85 | –
38 | Cc1nc(C2CC2)oc1C(=O)N(CC(F)F)c1ccc(F)cc1 | 0 | -0.02 | –
39 | O=C(Cc1ccc(F)cc1)N1C2CCC1CC(n1cncn1)C2 (stereo not drawn) | -9 | 1.07 | –
40 | O=C(NCCc1ccc(Cl)cc1)c1ccc(Cn2c(=O)[nH]c3ccccc3c2=O)cc1 | -9 | 1.68 | –
41 | C[C@@H](CN1CCCCC1)OC(=O)Cc1ccc(Cl)cc1 | – | – | 0% and -13%
42 | c1ccc(-c2nnc(-c3ccco3)nc2-c2c[nH]c3ccccc23)cc1 | -17 | 1.97 | –

Row | SMILES | % Inhibition [%] | Z score | % Inhibition (2 µM)
43 | O=S1(=O)CCCN1CCN1CCCc2c(F)cccc21 | -6 | 0.89 | –
44 | COc1ccccc1-n1ccn2cc(-c3ccc(C)c(C)c3)nc2c1=O | -3 | 0.44 | –
45 | CCOc1ccc(S(=O)(=O)N2C[C@@H]3CN(C(C)C)C[C@]3(C(=O)N3CCCC3)C2)cc1 | -21 | 2.76 | –
46 | CC(C)(C)NC(=O)Cn1cccc(S(=O)(=O)N2CCCC2)c1=O | -5 | 0.85 | –
47 | O=C(N[C@H]1CCOC[C@@H]1OCC1CCC1)c1ccon1 | -8 | 1.51 | –
48 | CC(C)(C(=O)O)c1cnc(NCCN2CCOCC2)nc1N1CCOCC1 | 0 | -0.02 | –
49 | C[C@H]1CCOCCN1C(=O)c1ccc(-c2cnn(C)c2)o1 | 4 | -0.69 | –
50 | O=C(OC[C@H]1CCCO1)c1cnn2c(C(F)(F)F)cc(-c3ccccc3)nc12 | -15 | 2.19 | –
51 | c1ccc(-c2nc(NC3CCCC3)c3oc(-c4ccccc4)nc3n2)cc1 | -7 | 0.89 | –
52 | Cn1cc(-c2ccc3c(c2)OCC[C@H]2CN(C(=O)COc4ccccc4)CC[C@H]2CC(=O)N3)cn1 | -14 | 1.84 | –
53 | C[C@@H](CNc1cnc2ccccc2n1)N1CCOCC1 | 20 | -2.58 | –
54 | CC(C)c1noc([C@H](C)NC(=O)Cc2c[nH]c(=O)n(C)c2=O)n1 | -14 | 1.85 | –
55 | CN1CCc2c(c3ccccc3n2Cc2ccccn2)C1 | -7 | 0.86 | –
56 | O=C(N[C@H]1CCO[C@H](c2cccnc2)C1)c1ccc(OC(F)F)nc1 | -3 | 0.69 | –
57 | CC[C@@H](CC1CCCCC1)C(=O)Nc1c(C(F)F)n[nH]c1C | 18 | -2.35 | –
58 | CCCc1nnc(CN[C@](C)(COC)CC(=O)OC)s1 | -8 | 0.98 | –
59 | CO[C@@]12CC[C@H](OCCO)C[C@@H]1N(Cc1ccc(F)c(F)c1F)CC2 | 14 | -1.98 | –
60 | CC[C@@H]1OC2(CCN(C(=O)CC3=CCCCC3)CC2)NC1=O | 7 | -1.17 | –
61 | O=C(OCc1ccccc1)N1CCN(c2nc3ccccc3c3nnc(-c4ccccc4Cl)n23)CC1 | -11 | 1.7 | –
62 | CCn1ccc2c(cc(C(=O)Nc3ccccc3Cl)n2C)c1=O | -13 | 1.22 | –
63 | Cc1nc2ncnn2c(O)c1Oc1ccc(N)cc1 | -8 | 1.38 | –

Row | SMILES | % Inhibition [%] | Z score | % Inhibition (2 µM)
64 | COc1ccc(F)cc1-c1cncc(CN2CCOCC2)c1 | -1 | 0.17 | –
65 | Cc1cc(CNC(=O)[C@@H]2CCC[C@@H](NC(=O)C(C)(C)C)CN(C)C(=O)C2)no1 | -11 | 1.46 | –
66 | O=C(CC1CCCC1)N1CCC[C@H]1c1nc2ccccc2s1 | -10 | 1.32 | –
67 | CC(C)(C)OC(=O)N1CC2CC1CCC2=O (stereo not drawn) | -3 | 0.51 | –
68 | C[C@@H](Cc1ccsc1)NC(=O)c1cnc(-c2cccnc2)nc1 | -15 | 1.75 | –
69 | COC1CCN(c2cc([C@H]3CCOC3)nc(N)n2)CC1 | -5 | 0.9 | –
70 | CCc1ncnc(O[C@H]2CCN(C(=O)CC3CC3)C2)c1F | -7 | 1.16 | –
71 | CN(C)C(=O)[C@H](NC(=O)OC(C)(C)C)c1ccccc1Cl | -6 | 0.72 | –
72 | COc1ccc([C@H](CNC(=O)C2CCN(S(=O)(=O)c3ccccc3F)CC2)N2CCCCC2)cc1 | -15 | 1.57 | –
73 | O=C(NCC1CC1)c1ccc2c(=O)n3c(nc2c1)CCCCCC3 | -8 | 0.78 | –
74 | CCc1nc2ccc(NC(=O)N3CCOC[C@@H]3CNS(C)(=O)=O)cc2s1 | 0 | -0.02 | –
75 | CCC1CCCN(C(=O)C2(C)CC2(Cl)Cl)C1 (stereo not drawn) | 1 | -0.12 | –
76 | CC(C)Nc1cccc(CNC(=O)C2(C(=O)O)CC3CCC2C3)c1 (stereo not drawn) | 1 | -0.19 | –
77 | N#Cc1ccc(S(=O)(=O)Nc2cnn(-c3ccccc3)n2)cc1 | 15 | -1.68 | –
78 | Cc1cccc(CS(=O)(=O)N2C3C=CCC2CC3)c1 (stereo not drawn) | -25 | 4.29 | –
79 | O=C(Nc1nnc(-c2cccs2)o1)c1ccc2c(c1)OCCO2 | -14 | 2.55 | –
80 | CN(CCNC(=O)c1ccc(-c2ccnc(N3CCCC3)n2)cc1)C1CCCCC1 | -15 | 1.94 | –
81 | COCc1nc(NC2CCC(NC(=O)c3cccc(F)c3)CC2)c2c(C)nn(-c3ccccc3)c2n1 (stereo not drawn) | 2 | -0.35 | –
82 | CCN(CC)C(=O)c1c2c(cn(-c3ccc(Cl)cc3)c1=O)C(=O)CC(C)(C)C2 | -10 | 1.08 | –
